# From PubChem BioAssay AID1963576 (National Center for Advancing Translational Sciences (NCATS), 2024)
# In all, about 46,000 compounds went through this assay and about 60 (0.1%) were called active. Inconclusive results (about 3%) are left out. The call rests on the fitted dose curve; in most records, active means well fitted inhibition curve with a large enough effect; inconclusive means small, poorly fitted or top-dose-only effect; inactive means no such curve, though single readings can be large or run the other way. The list shows a part of the results.
# Assay: Primary qHTS assay for Inhibitors of ovarian cancer metastasis using an organotypic tumor microenvironment (TME) model. Further: nearly all actives have a fitted effect of over 65% in size.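 On Potency: count of GFP cancer cells still attached after washing and fixation.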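 On activity change, negative = inhibition: plate controls were DMSO wells for no effect and tomatine positive control wells for full effect.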
# Details: SKOV3ip1-GFP adhesion/invasion on 3D omental model, fluorescence; series mostly up to 45.8 µM; activity change, negative = inhibition: at the top concentration
# Outline: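 Primary human omental fibroblast/mesothelial 3D culture pre-formed 48 h. SKOV3ip1-GFP cells added with compounds (0.36-46 umol/L), incubated 2 h RT/16 h 37 C, fixed; GFP cells quantified at 488/509 nm.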
# Potency means the concentration at half of the fitted maximal effect.
Compound,"activity change, negative = inhibition",Potency,outcome
COc1ccccc1NC(=O)N1CC(=O)Nc2sc3c(c2C1c1ccccc1)CCCC3 (centres undefined),inactive: -4.64%,–,–
O=C(Nc1ccc(S(=O)(=O)Nc2ccccc2)cc1)N1CCCC1,inactive: 7.59%,–,–
COc1ccccc1NC(=O)C1=C(C)Nc2c(C(=O)Nc3ccc(F)cc3)cnn2C1c1ccc(Cl)cc1 (centres undefined),inactive: -1.49%,–,–
CCOc1ccc(-c2oc3ccccc3c(=O)c2O)cc1OCC,inactive: 0.584%,–,–
CCCS(=O)(=O)c1ncc(Cl)c(C(=O)N(Cc2ccccc2)Cc2ccco2)n1,–,active: 2.24 µM,–
Cc1ccc(S(=O)(=O)Nc2cc3c(cc2C)n(C)c(=O)c(=O)n3C)cc1,inactive: -5.02%,–,–
Cn1c(=O)c2c(nc(SCC(=O)Nc3ccc(OC(F)(F)F)cc3)n2Cc2cccc(C(F)(F)F)c2)n(C)c1=O,inactive: -4.3%,–,–
COc1ccc(-c2noc(-c3ccc(NCc4ccc(C)cc4)c([N+](=O)[O-])c3)n2)cc1OC,–,–,inactive
COc1cccc(CNC(=O)Cn2cc3c(n2)-c2c(oc(C(=O)N4CCCC4)c2C)CC3)c1OC,inactive: -3.92%,–,–
CCc1nn(CC(=O)NCCc2ccc(OC)cc2OC)c(=O)c2cc3sccc3n12,inactive: 7.02%,–,–
COc1cc(CNC(=O)c2cc(-c3ccccc3)n[nH]2)cc(OC)c1OC,inactive: 10.7%,–,–
Cc1ccccc1NC(=O)CSc1nc(-c2ccc(F)cc2)c2cccc(C)c2n1,inactive: 17.9%,–,–
COc1ccc(-n2nc(C(=O)N3CCC(C)CC3)c3c4ccccc4n(C)c3c2=O)cc1Cl,inactive: 18%,–,–
Cn1nc(C(=O)NCc2ccccc2)c2c1-c1ccccc1SC2,–,–,inactive
CCOC(=O)c1sc2ccccc2c1S(=O)(=O)Nc1c(C)cccc1C,inactive: -15.7%,–,–
Cc1cc(NC(=O)N2CC=C(c3c[nH]c4ccccc34)CC2)ccc1Br,inactive: -4.38%,–,–
O=C(Cn1c(=O)n(-c2ccc(F)cc2)c(=O)c2sc3ccccc3c21)N1CCCC1,–,–,inactive
CCOC(=O)c1c(N)n(-c2ccc(C)c(C)c2)c2nc3ccccc3nc12,inactive: -8.73%,–,–
Cc1ccc(CSC2=Nc3ccccc3C3=NC(CCC(=O)N4CCN(c5ccccc5)CC4)C(=O)N23)cc1 (centres undefined),inactive: -10%,–,–
Cc1ccc(-c2onc(C)c2C)cc1S(=O)(=O)N1CCCCC1,–,–,inactive
COc1cccc(-c2nc(SCC(=O)Nc3ccc4c(c3)OCO4)c(-c3ccccc3)[nH]2)c1,inactive: 5.51%,–,–
CN(C)S(=O)(=O)N(CC(=O)NCCSCc1ccccc1Cl)c1ccccc1,inactive: 1.72%,–,–
CCc1ccc(S(=O)(=O)c2nnn3c2nc(NCCc2ccccc2)c2sccc23)cc1,inactive: -7.34%,–,–
Cc1nc2c(cnn2-c2ccccc2Cl)c(=O)n1-c1ccc(C(C)C)cc1,–,–,inactive

Compound,"activity change, negative = inhibition",Potency,outcome
COc1cc(NC(=O)Cn2ncc3c(=O)oc4ccccc4c32)cc(OC)c1OC,inactive: 8.62%,–,–
CCCc1noc(-c2ccc(N3CCCCC3)c([N+](=O)[O-])c2)n1,–,–,inactive
COc1ccc(CCn2cc3c(c2-c2ccccc2Br)c(=O)n(C)c(=O)n3C)cc1OC,–,–,inactive
Cc1cccc(N2CCN(S(=O)(=O)c3cc(Br)cc4c3N(C(=O)C3CC3)CC4)CC2C)c1 (centres undefined),inactive: 6.46%,–,–
CC(C)OCCCn1c(SCc2cccc(Br)c2)nc2c(sc3ccccc32)c1=O,inactive: 0.925%,–,–
CN1C(=O)Cc2cc(S(=O)(=O)CCC(=O)Nc3cccc(C(F)(F)F)c3)ccc21,inactive: -3.95%,–,–
CCOC(=O)C1(C)C=C(Nc2ccc(C(N)=O)cc2)C(=O)N1c1ccccc1 (centres undefined),inactive: 26.7%,–,–
CCOC(=O)c1cc(S(=O)(=O)Nc2ccc(OC)c(Cl)c2)[nH]n1,inactive: 28.9%,–,–
CCOc1ccc(CCNC(=O)CCCc2nnc3n(CC(C)C)c(=O)c4sccc4n23)cc1,inactive: -1.47%,–,–
COc1ccc2c(Sc3ccccc3)c(C(=O)NCc3cccc(OC)c3OC)[nH]c2c1,inactive: 3.21%,–,–
CC(=O)Nc1ccc(S(=O)(=O)Nc2cccc(-c3ccc(N4CCC(C)CC4)nn3)c2)cc1,inactive: 3.71%,–,–
CC(=O)N1c2ccc(S(=O)(=O)NCC3CCC(C(=O)NCCC(C)C)CC3)cc2CC1C (centres undefined),inactive: 4.1%,–,–
COc1ccccc1Oc1nc2c(c(=O)n(C)c(=O)n2C)n1Cc1cccc(Br)c1,–,–,inactive
Cc1ccc(OC(=O)c2cc(-c3ccccc3)nc3ccc(C)cc23)cc1,inactive: 0.22%,–,–
COCCNC(=O)c1ccc2c(c1)N(Cc1cccc(Cl)c1)C(=O)c1ccccc1S2(=O)=O,–,–,inactive
O=C(Cc1ccccc1)Nc1sc2c(c1C(=O)Nc1ccccc1Cl)CCC2,inactive: 0.589%,–,–
COc1ccc(-c2cc(NCc3ccc(F)cc3)n3cnnc3n2)cc1,–,–,inactive
CCCc1cc(N2CCN(c3cc(Cl)ccc3C)CC2)n2cnnc2n1,inactive: 1.91%,–,–
CCCN1C(=O)C(Cc2nc3ccccc3c(=O)n2CC)c2ccccc21 (centres undefined),–,–,inactive
COc1ccc(CNC(=O)Cn2nc(C)c3nn(-c4ccc(Cl)cc4)c(C)c3c2=O)cc1,–,–,inactive
Cc1ccc(-n2nc3c(N4CCC(C(=O)N5CCCCC5)CC4)nnc(C)c3c2C)cc1,inactive: -3.41%,–,–
Cc1ccc(NC(=O)CCc2nnc3n(CC(C)C)c(=O)c4ccccc4n23)cc1C,inactive: -1.37%,–,–
Cc1nn(CC(=O)NCCc2ccc(Cl)cc2)c(=O)c2cc3cc(F)ccc3n12,inactive: 1.23%,–,–
CCOc1ccc(CCNC(=O)CN2C(=O)COc3ccc(S(=O)(=O)N4CCC(C)CC4)cc32)cc1,–,–,inactive

Compound,"activity change, negative = inhibition",Potency,outcome
Cc1ccc(NC(=O)CCn2cccn2)cc1Cl,inactive: 2.53%,–,–
O=S(=O)(c1ccccc1)c1nnn2c1nc(NCc1cccs1)c1sccc12,inactive: 4.3%,–,–
Cc1ccc2oc(C(=O)Nc3c(C(=O)Nc4ccccc4)oc4ccccc34)cc(=O)c2c1,inactive: 8.55%,–,–
COC(=O)c1c(NC(=O)c2cc3nc(-c4ccc(OC)cc4)cc(C(F)(F)F)n3n2)sc2c1CCCC2,inactive: -0.949%,–,–
Cc1ccc(NC2=CC(c3ccccc3F)N(c3ccc(C)cc3)C2=O)cc1 (centres undefined),inactive: 7.53%,–,–
CCCCN(C)c1nnc(NC(=O)Nc2cccc(C(C)=O)c2)s1,inactive: 1.74%,–,–
Cc1cc(C)cc(Nc2cc(-c3ccccc3)nc(C)n2)c1,inactive: -3.76%,–,–
COc1ccc(NC(=O)Cn2c(=O)n(-c3ccccc3)c(=O)c3c4c(sc32)CCCC4)cc1,inactive: 87.4%,–,–
c1cncc(CN2CCC(n3ncc4c(N5CCOCC5)nc(-c5ccc6[nH]ccc6c5)nc43)CC2)c1,inactive: -16.5%,–,–
CC(C)Cn1c(=O)c2ccccc2n2c(CCC(=O)NCc3ccccc3Cl)nnc12,–,–,inactive
Cc1ccccc1-c1ncnn1-c1sc2c(c1C#N)CCCCC2,inactive: -5.2%,–,–
C[C@]12CC[C@@H]3c4ccc(O)cc4CC[C@H]3[C@H]1[C@@H](O)[C@@H](O)[C@H]2O,inactive: 6.93%,–,–
COc1ccc(-c2cc(C(=O)OCC(=O)c3ccc(C)cc3)c3cccc(Cl)c3n2)cc1,inactive: -7.5%,–,–
O=C(CN1C=NS(=O)(=O)c2ccccc21)Nc1ccc(F)cc1,inactive: 10.5%,–,–
O=C(NCc1cccs1)c1ccc2c(c1)N(Cc1ccccc1Cl)C(=O)c1ccccc1S2,inactive: 14.9%,–,–
COc1ccc(-c2cc3nc(C)c(CCC(=O)N4CCN(c5cccc(Cl)c5)CC4)c(C)n3n2)c(OC)c1,–,–,inactive
CCOc1ccccc1NC(=O)C(Cc1ccccc1)NS(=O)(=O)c1ccc2c(c1)oc(=O)n2C (centres undefined),inactive: 1.88%,–,–
COc1ccc(CNC(=O)c2cc3cc(C)ccc3n2C)cc1,inactive: -3.03%,–,–
CC(=O)NCCNC(=O)CCCc1nnc2n(C)c(=O)c3sccc3n12,inactive: 4.3%,–,–
O=C(Nc1cc(F)ccc1F)C1CCN(c2nc3ccccc3n3cccc23)CC1,–,–,inactive
Cc1ccc(-n2c(=O)c3c(c4cc(C)ccc4n3C)n(CC(=O)NCc3ccccc3Cl)c2=O)cc1,inactive: -4.97%,–,–
Cc1sc2c(c1C)c(=O)n(CCc1ccccc1)c(=O)n2Cc1cccc(F)c1,–,–,inactive
O=C(NCc1ccccc1Br)c1ccc2nc(N3CCCCC3)sc2c1,inactive: 21.8%,–,–
CC(Nc1ccc(-c2nc(-c3ccncc3)no2)cc1[N+](=O)[O-])c1ccccc1 (centres undefined),–,–,inactive

Compound,"activity change, negative = inhibition",Potency,outcome
CCCCN(CCCC)C(=O)CN(C)S(=O)(=O)c1ccc2c(c1)c(=O)n(C)c(=O)n2C,inactive: -3.08%,–,–
Cc1cccc(NC(=O)Cn2c(=O)n(-c3ccccc3Cl)c(=O)c3c(C)c(C(=O)N(C)C)sc32)c1,inactive: -14.5%,–,–
Cc1nc2c(C(=O)NCCc3ccc(Cl)cc3)cnn2c(C)c1Cc1c(F)cccc1Cl,inactive: -1.99%,–,–
CCOC(=O)c1ccc(NC(=O)CN(c2ccc(C)cc2)S(=O)(=O)c2c(C)noc2C)cc1,inactive: -6.98%,–,–
CC(=O)Nc1c(C)nn(-c2ccccc2)c1N1CCC(C(=O)NCc2ccc(Cl)cc2)CC1,inactive: 2.49%,–,–
Cc1cc(C)cc(N2CC(c3nc(-c4ccccc4C)no3)CC2=O)c1 (centres undefined),inactive: 1.32%,–,–
Cc1cccc(C(=O)Nc2ccc(-c3nc4ccccc4s3)cc2Cl)c1,inactive: -12.4%,–,–
CCCCNC(=O)C(CC)Sc1nnc(-c2cccc(F)c2)c(-c2cccc(F)c2)n1 (centres undefined),inactive: -0.947%,–,–
COc1ccc2oc(=O)cc(CN3CCN(c4ccc(F)cc4)CC3)c2c1,inactive: -10.7%,–,–
CCCCOC(=O)c1ccc(Nc2ncnc3[nH]ncc23)cc1,inactive: -20.7%,–,–
COc1ccc(CCC(=O)NC2CC(=O)N(c3ccc(C)cc3)C2)cc1 (centres undefined),–,–,inactive
CCOC(=O)c1ccc(CN(Cc2ccccc2)S(=O)(=O)c2ccc(C)cc2)cc1,inactive: -29.4%,–,–
COc1ccc(NC(=O)C2=CC(c3cccs3)=NS(=O)(=O)N2C)cc1,inactive: 0.184%,–,–
CC(C)N(CCCNC(=O)Nc1ccc(C(C)(C)C)cc1)C[C@H]1O[C@@H](n2cc(Br)c3c(N)ncnc32)[C@H](O)[C@H]1O,inactive: -26%,–,–
Cc1ccc(NC(=O)CN2C(=O)CCSc3ccc(S(=O)(=O)N4CCCC4)cc32)cc1,–,–,inactive
COc1ccc(CC(=O)Nc2nc3c(s2)CC(C(C)(C)C)CC3)cc1 (centres undefined),inactive: -1.39%,–,–
Cc1ccccc1CNC(=O)C(C)n1nc(C)n2c(cc3occc32)c1=O (centres undefined),–,–,inactive
CCn1c(CNC(=O)c2ccc(OC)cc2)nnc1SCC(=O)Nc1ccc(OC)cc1,–,–,inactive
Cc1ccc(-c2nc3c(c(SCC(=O)N4CCCCC4)n2)Cc2cc(C)ccc2O3)cc1,inactive: -1.43%,–,–
CCc1ccc(-c2nc(CSCC(=O)NCc3ccccc3OC)c(C)o2)cc1,–,–,inactive
CCOc1ccc(CC(=O)Nc2ccc3nc(N4CCCCC4)cc(C)c3c2)cc1OCC,inactive: 5.82%,–,–
CCOC(=O)c1cccc(NC(=O)CSc2ncc3c(n2)-c2ccccc2N(C)S3(=O)=O)c1,inactive: 0.987%,–,–
